Experimental data published in PubChem BioAssay (NCATS).
The inconclusive results got no clear call from the source; some entries with a clear call stand among them for comparison. Potencies beside an inconclusive call are fits to weak or partial responses and may not hold up. The source made the active and inactive calls. Calls come from the whole dose curve; as a rule, active = well fitted activation curve with a large enough effect; inconclusive = small, poorly fitted or top-dose-only effect; inactive = no such curve, though single readings can be large or run the other way.

Molecular target: Cellular tumor antigen p53 (Homo sapiens) (UniProt P04637)
Sequence of UniProt P04637 (P04637 whole entry, looked up): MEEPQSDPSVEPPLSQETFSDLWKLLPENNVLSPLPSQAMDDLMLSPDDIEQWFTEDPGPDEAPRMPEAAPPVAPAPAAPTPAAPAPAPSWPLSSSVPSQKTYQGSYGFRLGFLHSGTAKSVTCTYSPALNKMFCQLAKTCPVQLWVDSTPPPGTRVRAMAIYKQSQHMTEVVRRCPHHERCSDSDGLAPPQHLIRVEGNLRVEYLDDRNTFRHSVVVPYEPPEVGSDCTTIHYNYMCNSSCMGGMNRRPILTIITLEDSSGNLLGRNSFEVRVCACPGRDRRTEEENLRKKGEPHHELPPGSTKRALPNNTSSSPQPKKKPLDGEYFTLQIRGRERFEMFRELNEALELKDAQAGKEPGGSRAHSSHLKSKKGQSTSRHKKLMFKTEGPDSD
Experiment: Primary qHTS for small molecule compounds that upregulate eGFP-tagged delta133p53alpha (in N-terminal) cells. (AID 2060322);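 note: cells pre-induced with doxycycline then dosed without doxycycline; nearly all actives have a fitted effect of over 75% in size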;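 for activation: series mostly up to about 56 µM; 0% = DMSO vehicle and 100% = reference activator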
Conditions: NCI-H358 eGFP-delta133p53alpha fluorescence, 24 h; activation: active compounds read high
Summary of the method: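 NCI-H358 cells pre-induced 24 h with 10 ng/ml doxycycline for eGFP-delta133p53alpha, plated dox-free and exposed 24 h at 37C to titrated compounds. Fixed, Hoechst-stained; gated GFP peak intensity by laser scanning cytometry, normalized to DMSO (0%) and 57.5 uM 5-azacytidine (100%).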
Potency is the fitted concentration of half-maximal effect; tags give direction and shape of the fitted curve.

Compound | Potency | activation
CN(C)c1ccc(N=NS(=O)(=O)O)cc1 | inconclusive: 47.4 µM [activator, partial curve, poor fit] | –
CCOc1ccccc1O[C@H](c1ccccc1)[C@H]1CNCCO1 | – | inactive: -13%
Cc1occc1C(=O)n1ccnc1 | – | inactive: 1.43%
O=C(/C=C/c1c(C(=O)O)[nH]c2cc(Cl)cc(Cl)c12)Nc1ccccc1 | – | inactive: -11.9%
O=C(O)c1ccc(-c2cc3cccnc3c(-c3ccc4nonc4c3)n2)cc1 | – | inactive: 3.89%
Clc1ccc2c(c1)CCc1cccnc1C2=C1CCNCC1 | inconclusive: 24.6 µM [activator, partial curve, poor fit] | –
COC1C2=C(COC2=O)C2(C)CCCC(C)(CO)C2C1OC(=O)c1ccccc1 (stereo not drawn) | – | inactive: -16%
Nc1nc(-n2cc(C(=O)O)c(=O)c3cc(F)c(N4CC(O)C4)c(Cl)c32)c(F)cc1F | – | inactive: 13%
NC(=O)c1ncn([C@@H]2O[C@H](CO)[C@@H](O)[C@@H]2O)c1O | – | inactive: -3.98%
CC1=CC(=O)CC(C)(C)C1CCC(C)OC1OC(COC(=O)c2cc(O)c(O)c(O)c2)C(O)C(O)C1O (stereo not drawn) | inconclusive: 3.29 µM [activator, partial curve, poor fit] | –
CCN1CCCC(OC(=O)C(c2ccccc2)c2ccccc2)C1 (stereo not drawn) | inconclusive: 2.46 µM [activator, partial curve, poor fit] | –
CC1C(=O)OC2C(O)C34C5CC(C(C)(C)C)C36C(OC(=O)C6O)OC4(C(=O)O5)C12O (stereo not drawn) | – | inconclusive: 35.8% [activator]
CC[C@H]1CN2CCc3cc(OC)c(OC)cc3[C@H]2C[C@@H]1C[C@@H]1NCCc2cc(OC)c(OC)cc21 | active: 1.37 µM | –
